# According to PubChem BioAssay AID2451 (National Center for Advancing Translational Sciences (NCATS), 2010):
# “And” between values parts separate entries of the source, which are not always exact repeats. Identical values can stand only once. The campaign covered roughly 290,000 compounds. About 2,100 (0.72%) were called active. This list was built around the results that the source calls inconclusive (neither active nor inactive); the mix of calls is not that of the screen. Calls follow the shape of the dose curve; as a rule, active = well fitted inhibition curve with a large enough effect; inconclusive = small, poorly fitted or top-dose-only effect, or effect the other way; inactive = flat fitted curve, though single readings scatter. A potency beside an inconclusive call is a rough fit, not a confirmed value.
# Target: Fructose-bisphosphate aldolase (Giardia intestinalis (strain ATCC 50803 / WB clone C6)) (UniProt A8B2U2)
# Sequence of UniProt A8B2U2 (A8B2U2 whole entry, looked up): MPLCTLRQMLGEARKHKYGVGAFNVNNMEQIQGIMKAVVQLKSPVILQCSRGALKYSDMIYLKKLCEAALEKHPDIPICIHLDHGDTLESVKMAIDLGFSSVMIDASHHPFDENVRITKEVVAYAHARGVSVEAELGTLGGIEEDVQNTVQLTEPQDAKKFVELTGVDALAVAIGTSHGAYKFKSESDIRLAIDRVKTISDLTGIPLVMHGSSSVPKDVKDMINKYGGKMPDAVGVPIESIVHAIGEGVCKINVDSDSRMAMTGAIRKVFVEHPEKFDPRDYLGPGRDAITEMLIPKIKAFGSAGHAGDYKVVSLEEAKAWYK
# Experiment: qHTS Assay for Inhibitors of Fructose-1,6-bisphosphate Aldolase from Giardia Lamblia; also: nearly all actives have a fitted effect of over 55% in size
# Conditions: purified Giardia FBPA; series mostly up to 59.6 µM
# Summary of the method: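 40 nM FBPA preincubated 10 min at RT with compound (up to 57.5 uM final), then substrate plus GAPDH/TPI/NAD/arsenate coupling and diaphorase/resazurin added. Fluorescence read after 20 min at RT, 525/598 nm.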
# Potency is read from the fitted curve at half-maximal effect; tags tell the direction and shape of the fitted curve.
row,SMILES,Potency
1,CCn1c(-c2cc(-c3ccc(OC(C)C)cc3)nc3ccccc23)n[nH]c1=S,"inconclusive: 22.3 µM [activator, single point]"
2,CC(=O)Nc1ccc(NC(=O)CSc2ccccn2)cc1,inactive
3,CC1CN(C(=O)COC(=O)c2ccc(F)cc2Cl)CC(C)O1 (stereo unspecified),inactive
4,CC(C)CCC(CCN1CCCC1)c1ccc2c(c1)OCO2 (stereo unspecified),"inconclusive: 19.9 µM [inhibitor, partial curve]"
5,Cc1ccc(C(=O)c2ccccc2C(=O)OCC(=O)NC(=O)NC(C)(C)C)cc1,"inconclusive: 15.8 µM [inhibitor, single point]"
6,Cc1nn(CC(=O)Nc2ccc(C(=O)N3CCCC3)cc2)c(=O)c2ccccc12,inactive
7,CCN(CC)CCNCC(=O)Nc1ccc(Oc2ccccc2)cc1,"inconclusive: 19.9 µM [inhibitor, partial curve]"
8,Cc1cnc(C(=O)Nc2nnc(SCc3c(Cl)cccc3Cl)s2)cn1,"inconclusive: 17.7 µM [activator, single point]"
9,Cn1cc(Br)c(C(=O)NC(=S)Nc2ccc(S(N)(=O)=O)cc2)n1,active: 15.8 µM
10,O=S(=O)(CCc1ccncc1)C1Cc2cccc3cccc1c23 (stereo unspecified),inactive
11,O=C(N/N=C/c1cc([N+](=O)[O-])ccc1O)C1CC1,"inconclusive: 2.51 µM [inhibitor, full curve]"
12,CCOc1cc(C(=O)N2CCc3cc(OC)c(OC)cc3C2)ccc1OC(F)F,"inconclusive: 17.7 µM [inhibitor, partial curve]"
13,CN(C)c1ccc(N=Nc2ccccc2C(=O)OCC(=O)N(C)c2ccccc2)cc1,inactive
14,Fc1ccc(/C=N/Nc2ccccn2)cc1,inactive
15,COc1ccccc1C(=O)NNC(=S)Nc1ccccc1,inactive
16,COc1ccc(NC(=O)c2ccc(C)cc2)cc1,inactive
17,CCN1c2ccccc2NC2N=C(OC)C(c3ccccc3)C21 (stereo unspecified),"inconclusive: 17.7 µM [inhibitor, single point]"
18,CCOc1ccccc1N(CC(=O)Nc1cccnc1)S(=O)(=O)c1ccc(C)cc1,inactive
19,Cc1ccc(S(=O)(=O)NNC(=O)c2ccc3ccccc3n2)cc1,"inconclusive: 15.8 µM [inhibitor, partial curve]"
20,CN1C[C@@H]2C(c3ccc(Cl)nc3)C3(c4ccccc4)CC2(C3)[C@H]1c1ccccc1 (stereo partly specified),inactive
21,Cc1ccc(O)c(NC(=O)/C=C/C(=O)O)c1,inactive
22,Cc1ccc(SCCC(=O)Nc2nccs2)cc1,inactive
23,CCOC(=O)C1=C(c2ccccc2)N=c2s/c(=C\c3ccco3)c(=O)n2C1c1cccs1 (stereo unspecified),"inconclusive: 12.6 µM [inhibitor, partial curve]"
24,COc1ccc(NC(=O)c2cc(-c3ccccn3)nc3c(C)cc(C)cc23)c(C)c1,inactive
25,CC(C)(C)OC1NS(=O)(=O)OCC1NCOC(Cl)(Cl)Cl (stereo unspecified),"inconclusive: 31.6 µM [inhibitor, partial curve]"
26,O=C(Nc1ccccc1)c1ccc2nc(-c3ccco3)c(-c3ccco3)nc2c1,"inconclusive: 14.1 µM [inhibitor, partial curve]"

row,SMILES,Potency
1,CCC(=O)Nc1sc2c(c1C(N)=O)CCN(Cc1ccccc1)C2,"inconclusive: 15.8 µM [inhibitor, partial curve]"
2,O=[N+]([O-])c1ccc(Cl)c(CN2CCCCCC2)c1,"inconclusive: 31.6 µM [inhibitor, single point]"
3,O=C(O)CSc1nnc(NC(=O)CN2CCOCC2)s1,active: 5.01 µM
4,O=c1/c(=C\c2cc([N+](=O)[O-])cc([N+](=O)[O-])c2O)sc2nc3ccccc3n12,active: 15.8 µM
5,O=C(Nc1ccc2ccccc2c1)N1CCN(c2ncccc2C(F)(F)F)CC1,"inconclusive: 5.61 µM [inhibitor, partial curve]"
6,Cc1cc(C)cc(OCC(=O)N/N=C/c2ccccn2)c1,"inconclusive: 15.8 µM [inhibitor, single point]"
7,CN1CCc2c(sc(/N=C/c3c[nH]c4ccccc34)c2C#N)C1,active: 17.7 µM
8,Cc1ccc(S(=O)(=O)Nc2cc(C)c(O)c(Sc3n[nH]c(C)n3)c2)cc1,"inconclusive: 25.1 µM [inhibitor, single point]"
9,COc1cc(OC)c(NC2=CC(=O)C(=O)c3ccccc32)cc1Cl,"inconclusive: 7.94 µM [inhibitor, partial curve]"
10,COc1ccc(-n2cc(C(=O)Nc3cc([N+](=O)[O-])ccc3OC)c3ccccc3c2=O)cc1,inactive
11,O=C(Nc1nc(-c2cccc([N+](=O)[O-])c2)cs1)C(c1ccccc1)c1ccccc1,inactive
12,Cn1c(C(=O)OCC(=O)NCc2ccco2)cc2sccc21,inactive
13,COc1cccc(CN(C)CC(=O)Nc2ccccc2C(C)C)c1,"inconclusive: 17.7 µM [inhibitor, partial curve]"
14,Cc1cccc(C(=O)NC(=S)NNC(=O)c2ccc(Cl)cc2)c1,"inconclusive: 15.8 µM [activator, partial curve]"
15,Cc1[nH]n(C)c(=O)c1N=Nc1ccc(S(C)(=O)=O)cc1,"inconclusive: 19.9 µM [inhibitor, partial curve]"
16,O=[N+]([O-])c1ccc(O)c2cccnc12,"inconclusive: 12.6 µM [inhibitor, partial curve]"
17,S=C(NCc1ccccc1)NNc1ccccc1,"inconclusive: 19.9 µM [inhibitor, partial curve]"
18,CCc1nc2ccccc2[nH]1,inactive
19,Cc1cc(C)n2c(nc3ccccc32)c1C(=O)NN,inactive
20,O=C(O)CCn1cc(C=C2C(=O)NC(=S)NC2=O)c(-c2cc3ccccc3oc2=O)n1,"inconclusive: 17.7 µM [inhibitor, single point]"
21,S=c1nc[nH]c2c1ncn2C1CCCC1,active: 3.97 µM
22,COc1cc(OC)c(OC)cc1CN1CCN(Cc2ccc(SC)cc2)CC1,"inconclusive: 15.8 µM [inhibitor, partial curve]"
23,CCC(C)(C)n1nnnc1CN1CCc2ccccc21,inactive
24,O=C1C(=O)c2c(C(=O)c3ccccc3)coc2-c2ccccc21,active: 3.15 µM
25,Cc1ccc(C)c(NC(=S)NNc2ccc(F)cc2F)c1,"inconclusive: 3.55 µM [inhibitor, full curve]"
26,O=C(CN1CCN(Cc2ccccc2)CC1)Nc1ccc(F)c(F)c1,active: 20 µM

row,SMILES,Potency
1,COc1ccc(CCNc2nc(-c3sc(C)nc3C)cs2)cc1OC,"inconclusive: 35.4 µM [inhibitor, single point]"
2,COc1ccc(-c2n[nH]c(=S)o2)c(OC)c1,"inconclusive: 7.06 µM [inhibitor, partial curve]"
3,O=C(CCN1CCOCC1)Nc1ccc2c(c1)N(C(=O)CN1CCOCC1)c1ccccc1CC2,"inconclusive: 19.9 µM [inhibitor, partial curve]"
4,CCN1CC2=C(OC(N)=C(C#N)C2c2cccs2)/C(=C\c2cccs2)C1 (stereo unspecified),inactive
5,CC1=CC(C)(C)N2C(=O)C(=O)c3cc(OC(=O)c4ccco4)cc1c32,"inconclusive: 17.7 µM [inhibitor, partial curve]"
6,O=C(c1ccccn1)N1CCN(S(=O)(=O)c2ccccc2)CC1,inactive
7,Nc1ccc(C(=O)N/N=C/c2cn(Cc3ccccc3F)c3ccccc23)cc1,inactive
8,Nc1ccc2c(c1)-c1ccccc1S(=O)(=O)N2,"inconclusive: 20 µM [inhibitor, partial curve]"
9,CCN(CC)C(=O)C1CCCN(C(=O)Nc2ccc3nsnc3c2)C1 (stereo unspecified),"inconclusive: 5.61 µM [inhibitor, full curve]"
10,Nc1ccc2nn(-c3cccc4ccccc34)nc2c1,"inconclusive: 2.81 µM [inhibitor, full curve]"
11,O=C(CN1C(=O)COc2ccccc21)Nc1ccc(F)cc1,active: 5.61 µM
12,O=S(=O)(c1ccccc1)N1CCN(Cc2cccc(Cl)c2)CC1,"inconclusive: 19.9 µM [inhibitor, partial curve]"
13,CCCCC(=O)Nc1ccc(C(=O)NCCc2ccc(S(N)(=O)=O)cc2)cc1,inactive
14,O=C(COc1ccccc1)Nc1ccc2c(c1)nc1n2CCOC1,inactive
15,COCCN1C=C2C(=O)C(C)(OC(=O)CCc3ccccc3)C(=O)C=C2C=C1c1ccc(C#N)cc1 (stereo unspecified),"inconclusive: 1.12 µM [inhibitor, full curve] and inconclusive: 630 nM [inhibitor, full curve]"
16,CN(Cc1nc(Cc2ccccc2F)no1)CC1(N2CCOCC2)CCCCC1,inactive
17,O=C(NNc1cc(Br)c(O)c(Br)c1)c1ccccc1,"inconclusive: 14.1 µM [inhibitor, partial curve]"
18,CCCCn1c(SCC(=O)Nc2cc(C(F)(F)F)cc(C(F)(F)F)c2)nnc1C(CC)N(C)C (stereo unspecified),inactive
19,O=C(CCl)Nc1ccccc1Sc1ccc(Cl)cc1,"inconclusive: 17.7 µM [inhibitor, partial curve]"
20,Cc1nc2cc(-c3ccsc3-n3c(C)ccc3C)[nH]n2c(=O)c1Cl,"inconclusive: 4.46 µM [inhibitor, full curve, poor fit]"
21,N#C/C(=C(/O)c1cccs1)c1nnc2n1CCCCC2,"inconclusive: 15.8 µM [inhibitor, partial curve]"
22,CN1C(=O)C(Cc2c[nH]c3ccccc23)C(=O)N(C)C1=O,"inconclusive: 19.9 µM [inhibitor, partial curve]"
23,CCC(=O)Nc1nc2ccccc2n1Cc1ccccc1C,"inconclusive: 35.4 µM [activator, single point]"
24,Oc1nc(-c2ccc(Br)cc2)n2ccncc12,"inconclusive: 25.1 µM [inhibitor, single point]"
